Hit rate of the full screen: of about 310,000 compounds, about 2,200 (0.71%) showed an effect of 50% or more. The effect is printed as a negative number. Some of the results follow.
What follows are compounds tested against human ether-à-go-go-related gene (hERG) potassium channel (human, UniProt Q12809) (assay: primary screen, population patch clamp on CHO cells stably expressing hERG).
Chain of human ether-à-go-go-related gene (hERG) potassium channel (Q12809 whole entry, looked up): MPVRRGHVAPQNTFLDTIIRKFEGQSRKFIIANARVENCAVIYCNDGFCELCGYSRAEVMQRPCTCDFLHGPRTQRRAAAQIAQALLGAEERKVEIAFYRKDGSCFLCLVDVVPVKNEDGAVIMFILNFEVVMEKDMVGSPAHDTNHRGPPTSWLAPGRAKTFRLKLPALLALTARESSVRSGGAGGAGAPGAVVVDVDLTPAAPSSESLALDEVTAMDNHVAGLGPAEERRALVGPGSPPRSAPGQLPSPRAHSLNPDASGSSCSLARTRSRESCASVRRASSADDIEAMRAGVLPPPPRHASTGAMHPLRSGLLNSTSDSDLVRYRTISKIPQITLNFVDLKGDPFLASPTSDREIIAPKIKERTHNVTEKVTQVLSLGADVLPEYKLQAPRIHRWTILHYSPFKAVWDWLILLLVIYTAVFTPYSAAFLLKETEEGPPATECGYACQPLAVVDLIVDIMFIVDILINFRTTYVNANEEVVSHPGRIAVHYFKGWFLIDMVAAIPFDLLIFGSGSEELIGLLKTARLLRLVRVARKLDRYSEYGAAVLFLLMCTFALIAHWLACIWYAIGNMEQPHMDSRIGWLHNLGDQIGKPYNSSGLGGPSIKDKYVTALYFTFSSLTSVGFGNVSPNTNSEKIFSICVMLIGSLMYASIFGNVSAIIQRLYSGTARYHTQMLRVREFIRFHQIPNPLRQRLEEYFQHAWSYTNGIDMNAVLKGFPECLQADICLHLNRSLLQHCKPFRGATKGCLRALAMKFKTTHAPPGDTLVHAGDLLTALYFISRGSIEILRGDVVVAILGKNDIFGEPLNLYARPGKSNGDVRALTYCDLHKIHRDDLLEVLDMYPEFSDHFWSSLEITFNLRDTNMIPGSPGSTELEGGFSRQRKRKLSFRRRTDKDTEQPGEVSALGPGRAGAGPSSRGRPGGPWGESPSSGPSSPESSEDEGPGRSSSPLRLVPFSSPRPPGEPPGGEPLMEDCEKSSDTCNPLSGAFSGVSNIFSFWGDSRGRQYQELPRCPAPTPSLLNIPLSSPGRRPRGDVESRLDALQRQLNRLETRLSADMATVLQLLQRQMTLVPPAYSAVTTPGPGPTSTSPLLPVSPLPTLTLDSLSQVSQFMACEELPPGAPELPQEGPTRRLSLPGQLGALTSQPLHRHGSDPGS

| SMILES | hERG current change (%, negative = inhibition) at 1uM [%] |
| --- | --- |
| COCCn1c(Cc2cccn2C)nnc1SCC(=O)NCc1ccc2c(c1)OCO2 | 10.4 |
| Cn1c(=S)c2[nH]c(SCCN3CCCC3)nc2n(C)c1=O | 12.2 |
| O=C(Nc1ccc(C(=O)N2CCOCC2)cc1)c1cc(-c2cccnc2)nc2ccc(Br)cc12 | 5.09 |
| CC(C)C(=O)Nc1ccccc1C(=O)OCC(=O)c1ccc2c(c1)OCCO2 | -3.04 |
| COc1ccc(C(=O)OC2CC3CCC(C2)[N+]3(C)[O-])cc1OC (stereo not drawn) | 10.2 |
| O=C(Cc1cccc(F)c1)Nc1ccc2c(c1)CCC2 | 20.8 |
| O=S(=O)(Nc1cccnc1Cl)c1ccc2c(c1)OCCO2 | 13.9 |
| COc1ccc(-c2cc(C(=O)Nc3cc(Cl)ccc3OC)no2)cc1 | 18 |
| O=C(NCCN1C(=O)C2C3C=CC(C3)C2C1=O)NCc1ccccc1 (stereo not drawn) | 11.6 |
| COc1cc(NC(=O)CN(c2cc(C)cc(C)c2)S(=O)(=O)c2c(C)[nH]c(=O)[nH]c2=O)cc(OC)c1 | 3.15 |
| Cc1ccc(N(C(=O)CCCC(=O)Nc2ccccn2)C(C(=O)NC2CCCC2)c2ccc(O)cc2)cc1C (stereo not drawn) | 12 |
| O=C(COc1ccc2c(c1)CCC2)NCc1ccccc1 | 2.11 |
| CCOc1ccc(N=Nc2c(C)[nH]n(-c3ccccc3)c2=O)cc1 | 19.8 |
| CN=CC1=C(O)CC(C)(C)CC1=O | 11.9 |
| C=CCN(c1ccccc1C(=O)O)S(=O)(=O)c1ccc(NC(=O)OC)cc1 | 7.24 |
| Cc1ccc(C)c(N2CCN(C(=O)c3cccn4c(=O)c5sccc5nc34)CC2)c1 | 3.84 |
| O=c1c(Cc2c(F)cccc2Cl)c(O)ccn1Cc1ccc2c(c1)OCO2 | 10.8 |
| NC(=O)NCCCC(NC(=O)c1ccc(C#CC2(O)CCCCC2)cc1)C(=O)O (stereo not drawn) | 8.16 |
| Cc1ccc(-c2csc(NC(=O)CN3CCOCC3)n2)cc1 | 4.56 |
| O=[N+]([O-])c1ccc(N2CCN(S(=O)(=O)c3ccccc3)CC2)cc1NCc1cccnc1 | 5.1 |
| O=C(N/N=C1/CCSC1)c1cc(Br)ccc1O | 15.3 |
| Cc1cc(C)c(OCC(=O)Nc2cc(C(=O)O)cc(C(=O)O)c2)cc1C | 28.2 |

| SMILES | hERG current change (%, negative = inhibition) at 1uM [%] |
| --- | --- |
| Cc1ccc(F)cc1NC(=O)c1cccc(N(C)C)c1 | -2.18 |
| COC(=O)CC1Sc2ccccc2NC1=O (stereo not drawn) | 11.1 |
| COc1ccc(CCNC(=O)COC(=O)Cc2ccc(OC)cc2)cc1 | 9.03 |
| CCCc1ccc(C(=O)NNC(=O)c2ccc(Cl)cc2)cc1 | -1.76 |
| Cc1ccc(NC(=O)Cc2cc(C(=O)O)c3ccccc3n2)c(C)c1 | 8.8 |
| Cc1cccc2c(=O)c(C(=O)NCCCN3CCOCC3)c[nH]c12 | 8.52 |
| CCOC(=O)CC1C(=O)NCCN1C(=O)c1ccc(Cl)c(Cl)c1 (stereo not drawn) | 15.7 |
| Cn1cccc1CC(=O)NNC(=O)Nc1cccc(Cl)c1 | 1.24 |
| COCCN1Cc2cccc(C(=O)Nc3ccc(S(=O)(=O)N4CCCCCC4)cc3)c2C1=O | 15.3 |
| Cc1ccnc(NC(=O)Cn2cc([N+](=O)[O-])cn2)c1 | 10.4 |
| Cc1ccc(C(=O)Nc2cccc(C(F)(F)F)c2)cc1NC(=O)c1csc(-c2ccncc2)n1 | -17.1 |
| Cc1ccc(O)c(CNc2nccs2)c1 | 10 |
| CCOC(=O)c1ccc(COc2nc3ccccc3nc2-c2ccccc2NC(C)=O)o1 | 8.92 |
| Cc1cccc(N2CCN(C(=O)c3ccc(Cl)c(NC4=NC5CS(=O)(=O)CC5S4)c3)CC2C)c1 (stereo not drawn) | 13.5 |
| COC(=O)C1=C(c2ccc(F)cc2OCc2ccccc2)C[C@@H]2CC[C@H]1N2C(=O)NCc1ccc(OC)cc1 | 11.1 |
| CCOc1ccc(-c2c(C(=O)N/N=C(\C)c3cccnc3)nnn2-c2nonc2N)cc1 | 19 |
| CN1Cc2sc(NC(=S)NC(=O)c3ccccc3)c(C#N)c2CC1(C)C | -2.86 |
| Cc1ccc(C)c(OCC(=O)Nc2nonc2NC(=O)COc2cc(C)ccc2C)c1 | -20.6 |
| O=C(CCN1C(=O)C2C3C=CC(C3)C2C1=O)Nc1ccc2ncccc2c1 (stereo not drawn) | 18.8 |
| Cc1ccc(-c2nnn(CC(=O)Nc3nnc(C(C)C)s3)n2)cc1 | 9.97 |
| O=C(COC(=O)CCC(=O)c1cccs1)NC(=O)c1ccc(OC(F)F)cc1 | 10.9 |
| Cc1ccc(C(=O)Cc2cc3ccccc3oc2=O)c(C)c1 | 12.7 |

| SMILES | hERG current change (%, negative = inhibition) at 1uM [%] |
| --- | --- |
| COc1cc(NC(=O)CCNS(=O)(=O)c2cc(Br)cnc2N)cc(OC)c1 | 15.4 |
| Cc1noc(C)c1COc1ccc(C(=O)OC(C)C(=O)Nc2ccc(N3CCOCC3)cc2)cc1 (stereo not drawn) | 11.3 |
| COc1ccc(CCNc2oc(COc3ccccc3F)nc2C#N)cc1 | 5.07 |
| c1cncc(-c2nc3ccccc3s2)c1 | 5.73 |
| O=C(COC(=O)c1cnccn1)Nc1ccc(Cl)cc1C(F)(F)F | -5.39 |
| CCNC(=O)CN(C1CCCCC1)S(=O)(=O)c1ccc(F)cc1 | 5.37 |
| Cc1c(/C=N/NC(=O)c2cccnc2)cc(C#N)n1C | 13.7 |
| Cc1cc(C)c(S(=O)(=O)/N=C2\C=C(Nc3ccc(C(=O)O)cc3)C(=O)c3ccccc32)c(C)c1 | 7.5 |
| COc1ccc(CCNCc2ccc(OCc3ccc(Cl)nc3)c(OC)c2)cc1OC.Cl | -40.8 |
| COc1ccc2[nH]c3c(c2c1)CCN1C(=O)N([C@@H](C)C(=O)NCc2ccc(C)cc2)C(=O)[C@]31C | 6.3 |
| CSCCC(NC(=O)c1ccccc1)C(=O)N1CCN(C(C)=O)CC1 (stereo not drawn) | 13.8 |
| CN(N)C(=S)NCc1ccccc1 | 9.42 |
| Cc1ccc(S(=O)(=O)N2CCOCC2)cc1C(=O)O | 7.46 |
| CCN(CC)S(=O)(=O)c1ccc(OCC(=O)NCc2ccccc2)cc1 | 4.04 |
| CSc1nsc(SC)c1NC(=O)OCCc1ccccn1 | -0.591 |
| CCOC(=O)c1nn(-c2ccc3c(c2)CCN3C(C)=O)cc1O | 11.4 |
| CC(=O)Nc1cccc(NC(=O)CSc2nc(C)c(C)c(C)c2C#N)c1 | 12.8 |
| O=C(CSc1nc2[nH]ncc2c(=O)[nH]1)Nc1cccc([N+](=O)[O-])c1 | -14 |
| O=C(NC(Cc1ccccc1)C(=O)O)/C(=C\c1ccco1)NC(=O)c1ccccc1Br (stereo not drawn) | 11.1 |
| Cc1csc(NC(=O)CSc2nnc(CCNC(=O)c3cccs3)n2C)n1 | 7.3 |
| Cc1ccc(NC(=O)c2cccc3c2-c2ccccc2C3=O)cc1C | -0.741 |
| Cc1cc(C)nc(NS(=O)(=O)c2ccc(NC(=O)c3cccc(N4C(=O)CCC4=O)c3)cc2)n1 | -0.528 |

| SMILES | hERG current change (%, negative = inhibition) at 1uM [%] |
| --- | --- |
| COc1cc(CC(=O)Nc2nccs2)cc(OC)c1OC | 1.94 |
| O=C(NCCNc1ccc([N+](=O)[O-])cc1)c1ccco1 | -0.116 |
| O=c1c2ccccc2[nH]c(=S)n1-c1cccc(S(=O)(=O)N2CCCC2)c1 | 7.62 |
| CC(=O)c1ccc(NC(=S)Nc2ccc3cn[nH]c3c2)cc1 | 14.2 |
| COc1ccc(C(=O)Nc2cccc(C(=O)NCc3ccco3)c2)cc1 | 5.14 |
| O=C(O)c1ccccc1CSc1nc2ccccc2o1 | 14.8 |
| CCn1c(SCC(=O)Nc2ccccc2)nnc1-c1cccs1 | -13.8 |
| Cl.OC(CN1CCOCC1)CN(c1ccccc1)c1ccccc1 (stereo not drawn) | 6.82 |
| CCN(C(=O)COC(=O)Cc1c(F)cccc1Cl)c1c(N)n(Cc2ccccc2)c(=O)[nH]c1=O | 13.5 |
| Cl.O=C(CCN1CCCCCC1)Nc1ccc(F)cc1 | -21.3 |
| Cl.O=C(CSc1nc(O)cc(=O)n1-c1ccccc1)Nc1ccccn1 | 10.3 |
| Cc1ccc(S(=O)(=O)N2CCN(Cc3cc(C(C)C)ccc3O)CC2)cc1 | 9.31 |
| CCOC(=O)c1cc(-c2ccccc2)n(CCC(=O)N2CCN(c3ccccn3)CC2)c1C | 1.18 |
| CCOc1cc(/C=N/n2cnnc2)ccc1O | 17.1 |
| CCOc1ccc2c(=O)c(-c3ccc4c(c3)OCCCO4)c(C)oc2c1 | 11.7 |
| C/C(=N\NC(=O)CSc1nc2ccccc2s1)c1cccnc1 | 7.7 |
| COc1ccc(NS(=O)(=O)c2cc(NC(=O)c3ccc(F)cc3)ccc2OC)cc1 | 13.5 |
| COc1ccc(Cc2nnc(SCC(=O)Nc3ncc(C)s3)o2)cc1 | 1.23 |
| COC(=O)c1ccc(CSc2nccn2C)cc1 | 0.891 |
| CCOP(=O)(O)c1ccccc1OCCOc1ccccc1P(=O)(O)OCC | 13.7 |
| COc1ccc(NC(=O)CC2Oc3ccccc3NC2=O)cc1 (stereo not drawn) | 11.8 |
